{"source": "the supplement of paper PMC9446081", "note": "Among all 39,000 compounds or so, about 220 (0.56%) showed activity. This is one part of the list.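 Note: static incubation at 37 °C against the wild-type strain, values averaged over two biological replicates.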"}
{"system": "Escherichia coli K-12 BW25113", "experiment": "relative growth (OD600 normalised to plate interquartile mean) (fraction); higher = less growth inhibition, active = 0.2 or less", "conditions": "50 µM; LB; incubation time: overnight (16-24 h)"}
{"molecule": "CO[C@@H](CN(C)S(=O)(=O)c1cccc(Cl)c1)[C@H](C)CN([C@H](C)CO)S(=O)(=O)c1cccc(Cl)c1", "relative growth": "inactive: 1.03"}
{"molecule": "O=C(NC(=O)N1CCOCC1)c1ccc(S(=O)(=O)N2CCOCC2)cc1", "relative growth": "inactive: 0.963"}
{"molecule": "COc1ccc(S(=O)(=O)Nc2ccc3c(c2)C(=O)N([C@H](C)CO)C[C@H](C)[C@@H](CN(C)Cc2ccncc2)O3)cc1", "relative growth": "inactive: 1.01"}
{"molecule": "CO[C@@H](C(=O)N(C)C[C@@H]1OCc2ccccc2-c2c(n(C)c3ccccc23)C(=O)N([C@H](C)CO)C[C@H]1C)c1ccccc1", "relative growth": "inactive: 0.993"}
{"molecule": "CCCCC(=O)N(Cc1ccc(-c2ccccc2-c2nn[nH]n2)cc1)C(C(=O)O)C(C)C", "note": "(configuration not stated)", "relative growth": "inactive: 1.21"}
{"molecule": "Cc1ccc(-c2cnc3c(c2)C(=O)N([C@H](C)CO)C[C@@H](C)[C@H](CN(C)C(=O)Cc2ccncc2)O3)cc1", "relative growth": "inactive: 1.01"}
{"molecule": "C[C@@H]1CN([C@@H](C)CO)C(=O)Cc2cc(NC(=O)C3CC3)ccc2O[C@H]1CN(C)C(=O)Nc1ccc(F)cc1", "relative growth": "inactive: 1.01"}
{"molecule": "CNC[C@@H]1OCCCC[C@H](C)Oc2ccc(NC(=O)Nc3ccc(C(F)(F)F)cc3)cc2C(=O)N([C@H](C)CO)C[C@H]1C", "relative growth": "inactive: 0.98"}
{"molecule": "CO[C@H](CN(C)C(=O)C1CCOCC1)[C@@H](C)CN(C(=O)Nc1ccc(C(F)(F)F)cc1)[C@H](C)CO", "relative growth": "inactive: 0.778"}
{"molecule": "COc1cccc(S(=O)(=O)Nc2ccc3c(c2)[C@@H]2C[C@@H](CC(=O)NCCc4ccccc4)O[C@H](CO)[C@@H]2O3)c1", "relative growth": "inactive: 0.976"}
{"molecule": "C[C@@H]1CN([C@@H](C)CO)S(=O)(=O)c2ccc(C#Cc3cccnc3)cc2O[C@H]1CN(C)C(=O)CN(C)C", "relative growth": "inactive: 0.908"}
{"molecule": "Cn1ccnc1C(=O)NCc1cnc2n1CCNCC2", "relative growth": "inactive: 0.999"}
{"molecule": "C[C@H]1CN([C@@H](C)CO)C(=O)c2cc(NC(=O)CCCN(C)C)ccc2O[C@@H]1CN(C)C(=O)NC1CCCCC1", "relative growth": "inactive: 1.02"}
{"molecule": "COCCOC(=O)N1C(=O)[C@@]2(c3cc(C#CC4(O)CCCCCC4)ccc31)[C@H](C(=O)N1CCCCCCC1)[C@H]1C(=O)O[C@H](c3ccccc3)[C@H](c3ccccc3)N1[C@@H]2c1ccc(OCCO)cc1", "relative growth": "inactive: 1.06"}
{"molecule": "C[C@@H]1CN([C@@H](C)CO)C(=O)Cc2cc(NC(=O)CCCN(C)C)ccc2O[C@H]1CN(C)S(=O)(=O)c1ccccc1", "relative growth": "inactive: 0.938"}
{"molecule": "CC(C)C1=CC2=CCC3C(C)(C(=O)O)CCCC3(C)C2CC1", "note": "(configuration not stated)", "relative growth": "inactive: 1.07"}
{"molecule": "C[C@H](CO)N1C[C@H](C)[C@@H](CN(C)S(=O)(=O)c2ccc(Cl)cc2)Oc2c(NC(=O)C3CC3)cccc2C1=O", "relative growth": "inactive: 1.01"}
